Reference: PMC9911399, “Two distinct binding modes provide the RNA-binding protein RbFox with extraordinary sequence specificity”
Numbering of substitutions follows the chain as printed; changes in the protein carry UniProt numbers. The list shows a part of the results.

T1: RBFOX1 RRM RbFoxmut (Fox-RRM*) (Homo sapiens, UniProt Q9NWB1 109-208, R118D;E147R;N151S;E152T)
T1 sequence: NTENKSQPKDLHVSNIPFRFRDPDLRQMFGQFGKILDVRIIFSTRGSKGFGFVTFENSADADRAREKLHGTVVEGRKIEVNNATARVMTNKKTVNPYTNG

B1: AUCAAAU (DNA:RNA)
RNA: GGGAGACCGGAAUUCAGAUUGUCCAUCAAAUUUAAAUCCCGUCGUAGCCACCA
DNA 1: CAATCTGAATTCCGGTCTCCC
DNA 2: TGGTGGCTACGACGGGATT
B2: UGAGAAU (DNA:RNA)
RNA: B1 RNA with A25U, U26G, C27A, A28G
DNA 1: CAATCTGAATTCCGGTCTCCC
DNA 2: TGGTGGCTACGACGGGATT
B3: GUGCGCA (DNA:RNA)
RNA: B1 RNA with A25G, C27G, A28C, A29G, A30C, U31A
DNA 1: CAATCTGAATTCCGGTCTCCC
DNA 2: TGGTGGCTACGACGGGATT
B4: ACUUUCC (DNA:RNA)
RNA: B1 RNA with U26C, C27U, A28U, A29U, A30C, U31C
DNA 1: CAATCTGAATTCCGGTCTCCC
DNA 2: TGGTGGCTACGACGGGATT
B5: GCGUCUG (DNA:RNA)
RNA: GGGAGACCGGAAUUCAGAUUGUCCGCGUCUGUUAAAUCCCGUCGUAGCCACCA
DNA 1: CAATCTGAATTCCGGTCTCCC
DNA 2: TGGTGGCTACGACGGGATT
B6: UGAUGCU (DNA:RNA)
RNA: B1 RNA with A25U, U26G, C27A, A28U, A29G, A30C
DNA 1: CAATCTGAATTCCGGTCTCCC
DNA 2: TGGTGGCTACGACGGGATT
B7: AUGCCGA (DNA:RNA)
RNA: B1 RNA with C27G, A28C, A29C, A30G, U31A
DNA 1: CAATCTGAATTCCGGTCTCCC
DNA 2: TGGTGGCTACGACGGGATT
B8: ACGCACG (DNA:RNA)
RNA: B5 RNA with G25A, U28C, C29A, U30C
DNA 1: CAATCTGAATTCCGGTCTCCC
DNA 2: TGGTGGCTACGACGGGATT
B9: GACGUGU (DNA:RNA)
RNA: B1 RNA with A25G, U26A, A28G, A29U, A30G
DNA 1: CAATCTGAATTCCGGTCTCCC
DNA 2: TGGTGGCTACGACGGGATT
B10: ACCGUCU (DNA:RNA)
RNA: B1 RNA with U26C, A28G, A29U, A30C
DNA 1: CAATCTGAATTCCGGTCTCCC
DNA 2: TGGTGGCTACGACGGGATT
B11: AGGUGAA (DNA:RNA)
RNA: B1 RNA with U26G, C27G, A28U, A29G, U31A
DNA 1: CAATCTGAATTCCGGTCTCCC
DNA 2: TGGTGGCTACGACGGGATT
B12: CCGUUCG (DNA:RNA)
RNA: B5 RNA with G25C, C29U, U30C
DNA 1: CAATCTGAATTCCGGTCTCCC
DNA 2: TGGTGGCTACGACGGGATT
B13: CUACAUA (DNA:RNA)
RNA: B1 RNA with A25C, C27A, A28C, A30U, U31A
DNA 1: CAATCTGAATTCCGGTCTCCC
DNA 2: TGGTGGCTACGACGGGATT
B14: CAGAGAA (DNA:RNA)
RNA: B1 RNA with A25C, U26A, C27G, A29G, U31A
DNA 1: CAATCTGAATTCCGGTCTCCC
DNA 2: TGGTGGCTACGACGGGATT
B15: UUUACAU (DNA:RNA)
RNA: B1 RNA with A25U, C27U, A29C
DNA 1: CAATCTGAATTCCGGTCTCCC
DNA 2: TGGTGGCTACGACGGGATT
B16: GUAGACU (DNA:RNA)
RNA: B1 RNA with A25G, C27A, A28G, A30C
DNA 1: CAATCTGAATTCCGGTCTCCC
DNA 2: TGGTGGCTACGACGGGATT
B17: UCUGAAA (DNA:RNA)
RNA: B1 RNA with A25U, U26C, C27U, A28G, U31A
DNA 1: CAATCTGAATTCCGGTCTCCC
DNA 2: TGGTGGCTACGACGGGATT
B18: UUAAAAG (DNA:RNA)
RNA: B1 RNA with A25U, C27A, U31G
DNA 1: CAATCTGAATTCCGGTCTCCC
DNA 2: TGGTGGCTACGACGGGATT
B19: CAUAACA (DNA:RNA)
RNA: B1 RNA with A25C, U26A, C27U, A30C, U31A
DNA 1: CAATCTGAATTCCGGTCTCCC
DNA 2: TGGTGGCTACGACGGGATT
B20: UAUUCGC (DNA:RNA)
RNA: B5 RNA with G25U, C26A, G27U, U30G, G31C
DNA 1: CAATCTGAATTCCGGTCTCCC
DNA 2: TGGTGGCTACGACGGGATT
B21: UUCUAUA (DNA:RNA)
RNA: B1 RNA with A25U, A28U, A30U, U31A
DNA 1: CAATCTGAATTCCGGTCTCCC
DNA 2: TGGTGGCTACGACGGGATT
B22: CAUAGGG (DNA:RNA)
RNA: B1 RNA with A25C, U26A, C27U, A29G, A30G, U31G
DNA 1: CAATCTGAATTCCGGTCTCCC
DNA 2: TGGTGGCTACGACGGGATT
B23: UUGACGG (DNA:RNA)
RNA: B5 RNA with G25U, C26U, U28A, U30G
DNA 1: CAATCTGAATTCCGGTCTCCC
DNA 2: TGGTGGCTACGACGGGATT
B24: AACGAUA (DNA:RNA)
RNA: B1 RNA with U26A, A28G, A30U, U31A
DNA 1: CAATCTGAATTCCGGTCTCCC
DNA 2: TGGTGGCTACGACGGGATT
B25: AGCUCAU (DNA:RNA)
RNA: B1 RNA with U26G, A28U, A29C
DNA 1: CAATCTGAATTCCGGTCTCCC
DNA 2: TGGTGGCTACGACGGGATT
B26: CCGCAGU (DNA:RNA)
RNA: B1 RNA with A25C, U26C, C27G, A28C, A30G
DNA 1: CAATCTGAATTCCGGTCTCCC
DNA 2: TGGTGGCTACGACGGGATT
B27: UAACCCG (DNA:RNA)
RNA: B5 RNA with G25U, C26A, G27A, U28C, U30C
DNA 1: CAATCTGAATTCCGGTCTCCC
DNA 2: TGGTGGCTACGACGGGATT
B28: GUUUUGG (DNA:RNA)
RNA: B5 RNA with C26U, G27U, C29U, U30G
DNA 1: CAATCTGAATTCCGGTCTCCC
DNA 2: TGGTGGCTACGACGGGATT
B29: GUCUGAG (DNA:RNA)
RNA: B1 RNA with A25G, A28U, A29G, U31G
DNA 1: CAATCTGAATTCCGGTCTCCC
DNA 2: TGGTGGCTACGACGGGATT
B30: UUCCUGU (DNA:RNA)
RNA: B1 RNA with A25U, A28C, A29U, A30G
DNA 1: CAATCTGAATTCCGGTCTCCC
DNA 2: TGGTGGCTACGACGGGATT
B31: GACGUAC (DNA:RNA)
RNA: B1 RNA with A25G, U26A, A28G, A29U, U31C
DNA 1: CAATCTGAATTCCGGTCTCCC
DNA 2: TGGTGGCTACGACGGGATT

Biological target: T1, RBFOX1 RRM RbFoxmut (Fox-RRM*)
Assay: EMSA; HiTS-Eq, 1 nM pool, 10 min; buffer printed only for the single-RNA assays: 10 mM Tris pH 7.5, 150 mM NaCl, 3.4 mM EDTA, 0.001% NP-40, 30 C
Conditions: tags: His6 N-terminal (pET28a); label: 5' 32P
Outline: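 A pool of RNA with 7 randomized nucleotides, 5′-radiolabelled and with DNA-annealed flanks, was equilibrated at 1 nM for 10 min in 50 µL with purified RbFox RRM, wild type or mutant, across increasing protein concentrations. Free RNA was separated by 8% native PAGE, excised, reverse-transcribed, barcoded by PCR and sequenced. Relative association constants were obtained from read-count changes of each RNA species versus the control reaction and normalised to the cognate motif.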

Binder	binding signal
B1	0.0871 KA relative to UGCAUGU
B2	0.092 KA relative to UGCAUGU
B3	0.166 KA relative to UGCAUGU
B4	0.0562 KA relative to UGCAUGU
B5	0.189 KA relative to UGCAUGU
B6	0.0843 KA relative to UGCAUGU
B7	0.106 KA relative to UGCAUGU
B8	0.354 KA relative to UGCAUGU
B9	0.15 KA relative to UGCAUGU
B10	0.0777 KA relative to UGCAUGU
B11	0.12 KA relative to UGCAUGU
B12	0.112 KA relative to UGCAUGU
B13	0.0795 KA relative to UGCAUGU
B14	0.11 KA relative to UGCAUGU
B15	0.0913 KA relative to UGCAUGU
B16	0.0824 KA relative to UGCAUGU

Binder	binding signal
B17	0.044 KA relative to UGCAUGU
B18	0.0912 KA relative to UGCAUGU
B19	0.0932 KA relative to UGCAUGU
B20	0.102 KA relative to UGCAUGU
B21	0.146 KA relative to UGCAUGU
B22	0.0682 KA relative to UGCAUGU
B23	0.0789 KA relative to UGCAUGU
B24	0.0696 KA relative to UGCAUGU
B25	0.0951 KA relative to UGCAUGU
B26	0.0791 KA relative to UGCAUGU
B27	0.0922 KA relative to UGCAUGU
B28	0.102 KA relative to UGCAUGU
B29	0.146 KA relative to UGCAUGU
B30	0.0952 KA relative to UGCAUGU
B31	0.11 KA relative to UGCAUGU
